Out of some 150,000 compounds screened, about 540 (0.36%) showed an effect of 50% or more. The list shows a part of the results.

The results in this text go back to ChEMBL document CHEMBL4888484, “Replenishing the malaria drug discovery pipeline: Screening and hit evaluation of the MMV Hit Generation Library 1 (HGL1) against asexual blood stage Plasmodium falciparum ,using a nano luciferase reporter read-out” (2022).

The subject of the assay is Plasmodium falciparum. Nature of the assay: Primary screen in NF54 nanoGlo assay, in single point, at 2uM, 72h; a lower Z score goes with more inhibition. The format is functional, Erythrocyte. The settings on record: timepoint 72 hour.
What is called % Inhibition is the change of the read-out against control, counted positive when it falls. For `CC(C)Cc1noc(-c2cc3ccccc3c(=O)n2C)n1`, the “% Inhibition” value is -15% and the Z score stood at 2.88.

With `COc1ccc(C(C)C)cc1Cn1cc(CN2CCOC[C@H]2C)nn1`, the “% Inhibition” value turned out to be 5% and the Z score is recorded as -0.83.

As for `Cn1cc(-c2c(C#N)c(N)nc3c2COc2ccccc2-3)cn1`, the “% Inhibition” value is reported as -7% and the Z score is recorded as 1.08.

Consider `O=C(N[C@H]1CCOC[C@@H]1OCC1CCC1)c1ncn[nH]1`, for which the “% Inhibition” value is recorded as -2% and the Z score was found to be 0.26.

Regarding `CCc1ccc(NC(=O)c2sc3nc(C)c(C(=O)Nc4ccc(C)cc4C)c(-c4ccccc4Cl)c3c2N)cc1`, the “% Inhibition” value is 40% and the Z score is -2.96.

In the case of `Cc1cnc(C2CCOCC2)n1CC1CN(C(=O)Nc2ccc3c(c2)OCCO3)C1`, the “% Inhibition” value was -8% and the Z score came to 1.1.

As for `CCc1noc(NC(C)=O)c1-c1ccc(OC)c(S(=O)(=O)Nc2ccc(Cl)cc2)c1`, the “% Inhibition” value is reported as -8% and the Z score is given as 1.17.

Consider `Cc1ccccc1-n1ncc2c1CC(C)(C)C[C@@H]2NC(=O)CCn1cncn1`, for which the “% Inhibition” value is reported as -12% and the Z score amounted to 1.24.

For `CCn1nccc1C(=O)N1CCc2c(c(COc3cnccn3)nn2C)C1`, the “% Inhibition” value came to 2% and the Z score is reported as -0.26.

Turning to `CC(=O)N1C(c2cnc(C)c(-c3ccccc3)c2)CC=C(C)C1c1ccccc1` (stereo not given), the “% Inhibition” value is given as 3% and the Z score was -0.37.

For the compound `COc1cccc(CN2CCN3C(=O)N(Cc4ccc(F)cc4)C[C@H]3C2)n1`, the “% Inhibition” value amounted to 12% and the Z score was -1.86.

Regarding `CCC[C@H](C)c1cc(NS(=O)(=O)Cc2ccccc2)[nH]n1`, the “% Inhibition” value is recorded as -1% and the Z score is 0.14.

For the compound `Cc1cc(CN(C)C(=O)NCC2CCCCCCC2)no1`, the “% Inhibition” value is listed as -4% and the Z score is listed as 0.66.

Consider `Cc1nn(Cc2ccc(Cl)cc2)c(C)c1C(=O)N1CCCNCC1`, for which the “% Inhibition” value is -15% and the Z score was found to be 2.63.

For `CC1OC2c3cccc4cccc(c34)C2N1c1ccccc1` (stereo not given), the “% Inhibition” value was -10% and the Z score is listed as 1.13.

Regarding `O=C(COc1ccc2ccccc2c1)NC1CCN(C[C@H]2CCCO2)CC1`, the “% Inhibition” value was -13% and the Z score worked out at 1.7.

Take `O=C(N[C@H](C(=O)O)c1ccccc1)c1cc(Cl)ccc1F`: the “% Inhibition” value is -15% and the Z score was 1.54.

On to `O=C(NC[C@H](CC1CC1)C(=O)O)C1CC2(CC2)C1`, for which the “% Inhibition” value was -12% and the Z score came to 2.05.

On to `NC(=O)c1cncc(NCc2cccnc2N2CCN(c3ccccn3)CC2)n1`, for which the “% Inhibition” value is reported as 2% and the Z score is listed as -0.41.

Take `Cc1c(C(=O)N2CC[C@H](C)c3cccc(O)c32)nnn1Cc1ccc(F)cc1F`: the “% Inhibition” value is listed as -15% and the Z score came out at 2.61.

As to `Cn1c(CCc2cccc(NC(=O)Nc3ccccc3Cl)c2)nc2ccccc21`, the “% Inhibition” value was -9% and the Z score amounted to 1.4.

For `CCC(=O)N1CCN(c2cc(-n3ccc(C)n3)ncn2)CC1`, the “% Inhibition” value is -20% and the Z score is given as 1.74.

For the compound `COc1ccccc1OCC(=O)N[C@@H]1CNC(=O)C1`, the “% Inhibition” value is reported as -6% and the Z score worked out at 1.2.

For the compound `Cc1ccc([C@H](C)N(C)C(=O)CCOC2CCOCC2)s1`, the “% Inhibition” value is -7% and the Z score is on record as 1.2.

Take `CCn1cc(Cl)c(C(=O)N(CCO)Cc2nccs2)n1`: the “% Inhibition” value is on record as 1% and the Z score is reported as -0.15.

On to `O=C(c1cc(-c2ccc(F)cc2)n[nH]1)N1CCC(n2ccnn2)CC1`, for which the “% Inhibition” value is listed as -3% and the Z score came to 0.6.

For `CCN(CC(=O)Nc1c(C)cccc1C)C(=O)C1CC2CCC1O2` (stereo not given), the “% Inhibition” value is given as -8% and the Z score was 0.85.

On to `O=C(c1cccc(F)c1)N1CC(=O)N2CCc3ccccc3[C@@H]2C1`, for which the “% Inhibition” value is reported as 5% and the Z score is reported as -0.68.

With `O=S(=O)(c1cccc(NCc2ccccc2C(F)(F)F)c1)N1CCOCC1`, the “% Inhibition” value is reported as -1% and the Z score is given as 0.22.

Regarding `CN(CCc1cnn(C)c1)Cc1cccc(Cl)c1`, the “% Inhibition” value was 0% and the Z score is -0.01.

Consider `C[C@H](NCc1cnc(C(C)(C)C)s1)c1cn[nH]c1`, for which the “% Inhibition” value was determined as 17% and the Z score is -2.19.

As for `Cc1ccc(S(=O)(=O)N2c3ccccc3[C@](C)(c3ccccc3)CC2(C)C)cc1`, the “% Inhibition” value is reported as -16% and the Z score is 2.09.

Regarding `CCc1ccc([C@@H](C)C(=O)NCc2csc(=O)[nH]2)cc1`, the “% Inhibition” value was 30% and the Z score is reported as -3.42.

With `O=C(c1ccc(-c2nc(-c3ccc(F)cc3)no2)cc1)N1CCN(Cc2ccc3c(c2)OCO3)CC1`, the “% Inhibition” value is listed as 0% and the Z score is given as -0.02.

On to `Cn1cc(Br)c(C(=O)NCC2(C3(O)CCC3)CC2)n1`, for which the “% Inhibition” value is given as -13% and the Z score stood at 2.07.

Turning to `O=C1CC[C@H](Nc2cnc3cc(Cl)c(Cl)cc3n2)CN1`, the “% Inhibition” value is 5% and the Z score was -0.94.

For the compound `Cc1ccc(C(=O)NCC2CC3C=CC2CC3)nn1` (stereo not given), the “% Inhibition” value is on record as -2% and the Z score was found to be 0.47.

Take `CCC1(CC)NC(=O)N(CC(=O)Nc2cccc(-c3csc(C)n3)c2)C1=O`: the “% Inhibition” value is recorded as -12% and the Z score worked out at 1.59.

As to `CN(Cc1nccs1)c1ccc(F)cn1`, the “% Inhibition” value is reported as -3% and the Z score is reported as 0.39.

For the compound `Fc1ccc([C@H](c2nnc(-c3ccccc3)o2)N2CCN(C3CCCCC3)CC2)cc1`, the “% Inhibition” value amounted to 0% and the Z score was -0.01.

Take `CCN(CCN(C)C)c1ccc(NC(=O)c2cccs2)cc1C(=O)O`: the “% Inhibition” value is recorded as -24% and the Z score was found to be 2.17.

On to `CC(C)CNC(=O)c1cc(=O)c(OCc2cccc(Cl)c2)cn1CCO`, for which the “% Inhibition” value was -2% and the Z score stood at 0.3.

`C=C[C@](C)(CC)C(=O)N1CC(CC(N)=O)C1`: the “% Inhibition” value is listed as -11% and the Z score is reported as 1.21.

As for `CC(C)(C)N1C[C@@H](c2nc(-c3ccc4c(c3)CCC4)no2)CC1=O`, the “% Inhibition” value was -13% and the Z score is given as 1.73.

With `CC(C)CNC(=O)COc1ccccc1Br`, the “% Inhibition” value is -5% and the Z score is given as 0.73.

As to `Cc1ncnc(N2CCn3c(nc(C)c3C(=O)N(C)C)C2)c1C`, the “% Inhibition” value is 10% and the Z score is on record as -1.37.

In the case of `CN1CCC(CN(CCc2ccccc2)C(=O)c2ccc(Cl)s2)CC1`, the “% Inhibition” value is recorded as 11% and the Z score is recorded as -1.83.

As to `CC1(C)CN(C(=O)c2cn[nH]c(=O)c2)C(C)(C)CN1Cc1ccccc1`, the “% Inhibition” value is 24% and the Z score is recorded as -4.47.

`Cc1ccc(C2=C[C@@H](c3ccccc3)n3nnnc3N2CC(=O)N2CCCC2)cc1`: the “% Inhibition” value is given as -6% and the Z score was 0.74.

For `CC1CCCCC1NC(=O)COc1ccccn1` (stereo not given), the “% Inhibition” value is recorded as -7% and the Z score is recorded as 0.98.

For `CC(CC(=O)N1CCOCC1)NCC(C)c1ccsc1` (stereo not given), the “% Inhibition” value worked out at 5% and the Z score is on record as -0.72.

For `COc1ccccc1N(CN1CCCC1=O)C(=O)c1c(F)cccc1F`, the “% Inhibition” value was found to be 6% and the Z score is on record as -1.07.

Regarding `c1n[nH]cc1CCn1cc(-c2ccc3c(c2)CCC3)nn1`, the “% Inhibition” value is -4% and the Z score turned out to be 0.6.

Consider `O=C(NC1CC(F)(F)C1)c1cn[nH]c1`, for which the “% Inhibition” value turned out to be 2% and the Z score is listed as -0.21.

On to `Cn1cc(C(=O)NCCc2ccccc2)nn1`, for which the “% Inhibition” value is -2% and the Z score worked out at 0.35.
